Results as given in the antibiotic and cytotoxicity screens of Wong et al. (2023).
The other results are listed elsewhere or left out.

Tests used:
HSkMC = human skeletal muscle cells; assay: cytotoxicity call (relative viability < 0.9); conditions: 10 µM
HepG2 = assay: cytotoxicity call (relative viability < 0.9); conditions: 10 µM
S. aureus RN4220 = assay: growth inhibition call (relative growth <= 0.2); conditions: 50 µM

Structure (SMILES)	cytotoxicity call (HSkMC)	cytotoxicity call (HepG2)	growth inhibition call (S. aureus RN4220)
COc1ccc(S(=O)(=O)N(C)C[C@@H]2Oc3c(NS(C)(=O)=O)cccc3C(=O)N([C@@H](C)CO)C[C@H]2C)cc1	inactive	inactive	inactive
CC(=O)Nc1ncc([N+](=O)[O-])s1	inactive	inactive	inactive
CC(C)NC(=O)Nc1ccc2c(c1)C(=O)N([C@H](C)CO)C[C@H](C)[C@H](CN(C)Cc1ccc(C(=O)O)cc1)O2	inactive	inactive	inactive
CC(=O)N1Cc2cc(C(=O)NCc3cc(F)cc(F)c3)nc(-c3cccc(C4=CCCC4)c3)c2[C@@H]1CCO	inactive	inactive	inactive
C[C@@H]1CN([C@H](C)CO)C(=O)c2cccc(NC(=O)C3CCCCC3)c2O[C@@H]1CN(C)Cc1ccc(Cl)c(Cl)c1	inactive	inactive	inactive
COCC(=O)Nc1ccc2c(c1)OC[C@@H](C)N(C(=O)Cc1ccccn1)C[C@H](C)[C@H](OC)CN(C)C2=O	inactive	inactive	inactive
Cc1noc(C)c1NC(=O)N(C)C[C@H]1Oc2c(NC(=O)c3ccc(-c4nccs4)cc3)cccc2C(=O)N([C@@H](C)CO)C[C@H]1C	inactive	inactive	inactive
O=C(C[C@@H]1C[C@H]2c3cc(NC(=O)C4CCOCC4)ccc3O[C@H]2[C@@H](CO)O1)NCc1ccc(Cl)cc1	inactive	inactive	inactive
C[C@@H]1CN([C@H](C)CO)C(=O)c2cc(NS(=O)(=O)c3ccc(Cl)cc3)ccc2O[C@@H](C)CCCCO[C@@H]1CN(C)S(=O)(=O)c1ccc(F)cc1	inactive	inactive	inactive
CS(=O)(=O)N1CCc2c(-c3cnc(N)nc3)nc(N3CCOCC3)nc21	active	active	inactive
CN1CCN(c2ccc(OC(F)(F)F)c(Nc3ncc4c(n3)-c3c(c(C(N)=O)nn3CCO)CC4)c2)CC1	active	active	inactive
C[C@@H]1CN([C@@H](C)CO)C(=O)Cc2cc(NC(=O)C3CC3)ccc2O[C@@H]1CN(C)S(=O)(=O)c1ccccc1	inactive	inactive	inactive
CN(C)CC(=O)N[C@@H]1CC[C@@H](CCn2cc(CN(C)C)nn2)O[C@H]1CO	inactive	inactive	inactive
C[C@@H]1CN([C@@H](C)CO)C(=O)CCCn2cc(nn2)CO[C@H]1CN(C)C(=O)C1CC1	inactive	inactive	inactive
C[C@@H]1CCCCO[C@@H](CN(C)C(=O)NC2CCCCC2)[C@H](C)CN([C@@H](C)CO)C(=O)c2cc(NS(=O)(=O)c3ccc(Cl)cc3)ccc2O1	inactive	inactive	inactive
Cc1noc(C)c1NC(=O)N(C)C[C@H]1OCCCC[C@@H](C)Oc2ccc(NS(=O)(=O)c3ccc(F)cc3)cc2C(=O)N([C@H](C)CO)C[C@@H]1C	inactive	inactive	inactive
C[C@@H]1CN([C@@H](C)CO)C(=O)c2cc(NC(=O)Cn3cnnn3)ccc2O[C@H]1CN(C)S(=O)(=O)c1ccc(Cl)cc1	inactive	inactive	inactive
COc1ccc(NC(=O)Nc2ccc3c(c2)C(=O)N([C@H](C)CO)C[C@@H](C)[C@H](CN(C)Cc2ccncc2)OCCCC[C@@H](C)O3)cc1	inactive	inactive	inactive
C[C@@H]1CN([C@@H](C)CO)C(=O)c2cc(NC(=O)Nc3ccc(C(F)(F)F)cc3)ccc2O[C@@H](C)CCCCO[C@H]1CN(C)C(=O)Nc1ccccc1	inactive	inactive	inactive
